{"source": "patent US20210380680A1", "about": "(ZLLP, published 2021)", "binders": {"B1": {"name": "282A12F3 (T62A)-vcMMAE (other)", "heavy": "QVQLKESGPVLVQPSQTLSLTCTVAGFSLTSYNVYWVRQPPGKGLEWMGVIWNTGATRYNSALKSRLSISKDTSKSQVFLKMNSLQTEDTATYYCARDSAMPAIPFAYWGQGTLVTVSS[in this place human IgG1 constant region]", "light": "DIVMTQSPSSLAVSAGETVTINCKSSQSLFGSVRQKNYLAWYQQKPGQSPKLLIYLASTRESGVPDRFIGSGSGTDFTLTISSVQAEDLAKYYCQQYYDIPWTFGGGTKLELKRTVAAPSVFIFPPSDEQLKSGTASVVCLLNNFYPREAKVQWKVDNALQSGNSQESVTEQDSKDSTYSLSSTLTLSKADYEKHKVYACEVTHQGLSSPVTKSFNRGEC", "modifications": "mc-vc-PAB-MMAE on reduced cysteines, average DAR 3.57, 3.70 or 3.94"}}, "target": "human Claudin 18.2 (CLDN18.2) (human, UniProt P56856-2 1-261)", "assay": "cell-based or functional assay", "data": [{"binder": "B1", "values": [{"measurement": "ADC IC50, HEK293-CLDN18.2, DAR 3.57", "value": 0.44, "unit": "nM"}, {"measurement": "ADC IC50, HEK293-CLDN18.2, DAR 3.7", "value": 0.35, "unit": "nM"}, {"measurement": "ADC IC50, HEK293-CLDN18.2, DAR 3.94", "value": 0.38, "unit": "nM"}, {"measurement": "ADC IC50, NCI-N87-CLDN18.2, DAR 3.57", "value": 10.8, "unit": "nM"}, {"measurement": "ADC IC50, NCI-N87-CLDN18.2, DAR 3.7", "value": 9, "unit": "nM"}, {"measurement": "ADC IC50, NCI-N87-CLDN18.2, DAR 3.94", "value": 7.6, "unit": "nM"}, {"measurement": "ADC IC50, NUGC4-CLDN18.2, DAR 3.57", "value": 25.6, "unit": "nM"}, {"measurement": "ADC IC50, NUGC4-CLDN18.2, DAR 3.7", "value": 21.7, "unit": "nM"}, {"measurement": "ADC IC50, NUGC4-CLDN18.2, DAR 3.94", "value": 20.1, "unit": "nM"}, {"measurement": "ADC IC50, Panc1-CLDN18.2, DAR 3.57", "value": 1.5, "unit": "nM"}, {"measurement": "ADC IC50, Panc1-CLDN18.2, DAR 3.7", "value": 1.1, "unit": "nM"}, {"measurement": "ADC IC50, Panc1-CLDN18.2, DAR 3.94", "value": 1.3, "unit": "nM"}]}]}
